# Measured values from PMC7819943, “Rice protein-binding microarrays: a tool to detect cis-acting elements near promoter regions in rice”.
# Some of the results follow.
# Molecular target: T1, OsWOX13 (Oryza sativa, UniProt Q5QMM3 1-267)
# T1 sequence: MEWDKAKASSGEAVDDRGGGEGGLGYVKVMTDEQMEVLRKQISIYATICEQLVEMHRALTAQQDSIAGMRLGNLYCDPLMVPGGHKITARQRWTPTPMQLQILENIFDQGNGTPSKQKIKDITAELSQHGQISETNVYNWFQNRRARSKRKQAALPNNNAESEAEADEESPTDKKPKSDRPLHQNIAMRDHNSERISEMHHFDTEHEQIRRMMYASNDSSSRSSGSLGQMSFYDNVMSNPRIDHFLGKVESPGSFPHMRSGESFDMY
# Experiment: protein-binding microarray (RPBM); PBS, 2% BSA, 51.3 ng/ul salmon testes DNA, 50 uM zinc acetate, 200 nM TF, 25 C, 1 h; high values mean tight binding
# Conditions: protein: recombinant; tags: N-terminal polyhistidine and DsRed monomer fusion (pET32a); label: CyDye5-dUTP incorporated in the synthesized complementary strand; 3' TTTTT single-stranded linker to array surface; dsDNA, one strand shown
# Procedure, shortened: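 The binding signal for each feature is its fluorescence intensity in arbitrary units. An Axon 4000B scanner was used to read a custom Agilent array that had been made double-stranded with Cy5-dUTP primer extension, blocked with 2% BSA, incubated at 25 °C for 1 h with 200 nM protein in PBS, 2% BSA, salmon testes DNA and 50 µM zinc acetate, and washed. The protein was an N-terminal polyhistidine–DsRed transcription factor fusion from E. coli BL21-CodonPlus, purified on Ni–NTA.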
row,Sequence,binding signal
1,ATTTAATTATCTCTCTATACACATGCACTGTACATGTATTCGGAGTCACCTAGTGCAG,15300 fluorescence intensity (a.u.)
2,CGTTAATCGTTGTGATTGATGTCGGATATGTTTGCCACCACGGAGTCACCTAGTGCAG,58600 fluorescence intensity (a.u.)
3,TTAAACAAAATTGTGTTTCGATTTCCTAAAATACGATTCACGGAGTCACCTAGTGCAG,3170 fluorescence intensity (a.u.)
4,TCTTCAATCAGACACACTCTCTTTCTTCCCTTCCAAGGCGCGGAGTCACCTAGTGCAG,25300 fluorescence intensity (a.u.)
5,ACTAATGTGAATTTGAATGTTAACATGTTACGCCAGTCAACGGAGTCACCTAGTGCAG,12200 fluorescence intensity (a.u.)
6,CTCAATGATAATGATACCTAATTAAAACGTAGTTTTCCCACGGAGTCACCTAGTGCAG,6480 fluorescence intensity (a.u.)
7,TTATGATGAGAAGTTAATACTCAAGATTACCATGAAGACTCGGAGTCACCTAGTGCAG,5000 fluorescence intensity (a.u.)
8,AAGTCTAATTTATCTCCCTGTTGCTACAGTAGCTTCTTCACGGAGTCACCTAGTGCAG,3890 fluorescence intensity (a.u.)
9,TCTATCTAATTTAGCTAGTCAAACAGTCTTTTACTCCAACCGGAGTCACCTAGTGCAG,4690 fluorescence intensity (a.u.)
10,ATAAGATAATAAATTAGATAAACGGAACATAAATAAGGCTCGGAGTCACCTAGTGCAG,10800 fluorescence intensity (a.u.)
11,CTAATTGCTACCCTCTAAACTGTTACAACATAATCTTTGGCGGAGTCACCTAGTGCAG,13900 fluorescence intensity (a.u.)
12,AGCTGAGAGTGATTGCTTGACAAAAGAATTAGGACTCAGGCGGAGTCACCTAGTGCAG,19900 fluorescence intensity (a.u.)
13,AATGACTGATGTATGTGCGTATAGCGAGAAAGAGGAGAGTCGGAGTCACCTAGTGCAG,15900 fluorescence intensity (a.u.)
14,ATTTAAGTGCTAAATTAGTAATTTAATCCCACTAGGAAGCCGGAGTCACCTAGTGCAG,23800 fluorescence intensity (a.u.)
15,GCAAGATTAATTGTTTTGCTAACTTGAACTATCTAGAAGTCGGAGTCACCTAGTGCAG,30700 fluorescence intensity (a.u.)
16,GGAAATGATTGGTACATTGAAGATAGGAGTACCCTTGAAGCGGAGTCACCTAGTGCAG,48300 fluorescence intensity (a.u.)
17,CCTATAATATAACTTTGCTATTAATTAGGGGTATTTTGGTCGGAGTCACCTAGTGCAG,6250 fluorescence intensity (a.u.)
18,GCCAAGCCAAATGAATGATTGCTGTGGTGAAGGGCGACTACGGAGTCACCTAGTGCAG,3830 fluorescence intensity (a.u.)
19,GTAACTTCGGAACAATTGATTGTACTGTAGGGGTGGGATTCGGAGTCACCTAGTGCAG,7990 fluorescence intensity (a.u.)
20,ATGCATGCATGCAGATTAATTAGTGCATTGACACAAGTGTCGGAGTCACCTAGTGCAG,4350 fluorescence intensity (a.u.)
21,CTTATTCAAGATTTATATAATTATCATTTATTTTATTGGGCGGAGTCACCTAGTGCAG,5050 fluorescence intensity (a.u.)

row,Sequence,binding signal
1,CGAGTGACGAGGTCTTGGGTTGGGGTAGGGGTGGGATGAGCGGAGTCACCTAGTGCAG,3960 fluorescence intensity (a.u.)
2,ATAATGATGTGTTCTATTTAATTAGATCTACACTATGTTCCGGAGTCACCTAGTGCAG,14700 fluorescence intensity (a.u.)
3,AAATAAATTTGTTTTCAAGATTTATGTTCGTGCAAATGATCGGAGTCACCTAGTGCAG,8040 fluorescence intensity (a.u.)
4,GTTTTAAATTAATATATCTCGCGGAATATTAGAGCAAACGCGGAGTCACCTAGTGCAG,12600 fluorescence intensity (a.u.)
5,CCTAATTAAGAAGAAGATACACATCGAGAGGGCGTTCTCGCGGAGTCACCTAGTGCAG,11100 fluorescence intensity (a.u.)
6,TCGTATTTATGGCTAATTATTATTTCAGTGGTAGACGATTCGGAGTCACCTAGTGCAG,6670 fluorescence intensity (a.u.)
7,ATTGATTGTGTACGTTTTGCCCTTAATCCTTGTCAGCAGTCGGAGTCACCTAGTGCAG,31700 fluorescence intensity (a.u.)
8,CCCAAATCCCGGAAACGTGATTTGTAGGTCCTCAACTTAACGGAGTCACCTAGTGCAG,8960 fluorescence intensity (a.u.)
9,GTATTGATGTTAATGAATCTAGATAGATATATATGTCTAACGGAGTCACCTAGTGCAG,10700 fluorescence intensity (a.u.)
10,TGCAGATGATAATTGGAGAGCCTTGTTTAGTAATTCACATCGGAGTCACCTAGTGCAG,17000 fluorescence intensity (a.u.)
11,ATTATTAATTTAATAGTATTGTAGTGATTCAGAGTACTAGCGGAGTCACCTAGTGCAG,19200 fluorescence intensity (a.u.)
12,GCTCCAATTGGTGCATAATTACATGGAGATGCAAATAGTACGGAGTCACCTAGTGCAG,8440 fluorescence intensity (a.u.)
13,GAATGATGATGATTCATGATGTAAAGGTATCATCTTTATTCGGAGTCACCTAGTGCAG,5190 fluorescence intensity (a.u.)
14,GATCATTAGGTCAATCACATAACAGAATGCAGACATTAAGCGGAGTCACCTAGTGCAG,20800 fluorescence intensity (a.u.)
15,ATAAGATATATTATTTGGTAATTATTTTAGGTCCGAATTTCGGAGTCACCTAGTGCAG,4020 fluorescence intensity (a.u.)
16,CATAATTGCACGATCATTGATTTTGGAACATTCTGAGGCTCGGAGTCACCTAGTGCAG,57100 fluorescence intensity (a.u.)
17,ACAACCTAGAATTACACGATTAATTTAGGACGGATGTAGTCGGAGTCACCTAGTGCAG,4080 fluorescence intensity (a.u.)
18,CAGTTAATTTAGGCTATTTTGGCTTCAATCCAAACATAATCGGAGTCACCTAGTGCAG,13200 fluorescence intensity (a.u.)
19,ATAGATTGTCCAGATAGACTATGGGCCTGTTTAAGGGAGCCGGAGTCACCTAGTGCAG,22800 fluorescence intensity (a.u.)
20,ATAATAGATAGATAGATAATGCATCAAATAAACACTCATACGGAGTCACCTAGTGCAG,27700 fluorescence intensity (a.u.)
21,ATGAAATGATTTGATTGAAATATTATGAAATGATTTGAGACGGAGTCACCTAGTGCAG,39500 fluorescence intensity (a.u.)
